# From PubChem BioAssay AID2546 (National Center for Advancing Translational Sciences (NCATS), 2010)
# The campaign covered roughly 310,000 compounds. About 11,000 (3.5%) were called active. The inconclusive results got no clear call from the source; some entries with a clear call stand among them for comparison. The call rests on the fitted dose curve; in most records, active means well fitted inhibition curve with a large enough effect; inconclusive means small, poorly fitted or top-dose-only effect, or effect the other way; inactive means flat fitted curve, though single readings scatter. No potency is given beside an inconclusive call; the fits are too rough.
# Assay: VP16 counterscreen qHTS for inhibitors of ROR gamma transcriptional activity;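 further: Gal4-VP16 expression switched on by copper sulfate through the metallothionein promoter; nearly all actives have a fitted effect of over 50% in size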
# Settings: Drosophila S2 Gal4-VP16 UAS-luciferase, luminescence, 20 h; series mostly up to 53.6 µM
# Potency means the concentration at half of the fitted maximal effect; tags describe the fitted curve by direction and shape.
row,SMILES,Potency
1,COCCNC(=O)CSC1=N/C(=C/c2ccc(Cl)c(Cl)c2)C(=O)N1c1ccccc1F,"inconclusive [inhibitor, single point]"
2,CC1CCN(c2ccc(N3C(=O)C4CCCCC4C3=O)cc2[N+](=O)[O-])CC1 (configuration not stated),inactive
3,COc1ccc(OCC(=O)NNc2c3ccccc3nc3ccccc23)cc1,active: 7.08 µM
4,O=c1cc(-c2ccccc2)oc2ccc(O)cc12,inactive
5,CC(=O)OC[C@@]12C(=O)[C@@H](O)[C@@H](C)[C@]3(C[C@@H](c4ccoc4)O[C@@H]3OC(C)=O)[C@H]1CCC[C@]21CO1,inactive
6,Cc1cccc(NS(=O)(=O)c2ccc(C3CCCCC3)cc2)c1,"inconclusive [inhibitor, single point]"
7,CCOc1ccc(S(=O)(=O)N2CCC(C(=O)NCc3ccncc3)CC2)cc1C,inactive
8,Cc1cccc2c(C(=O)N3CCN(C(=O)c4ccco4)CC3)cc(-c3cccc(Br)c3)nc12,"inconclusive [inhibitor, single point]"
9,O=C(C1=C[C@H](c2ccc(Br)cc2)C[C@H](OCCCCO)O1)N1CCN(Cc2ccc3c(c2)OCO3)CC1,"inconclusive [inhibitor, single point]"
10,Cc1ccc(NC(=O)CSc2n[nH]c(-c3ccncc3)n2)c(C)c1,inactive
11,O=C(NC(=O)c1ccccc1)Nc1ccccc1O,"inconclusive [inhibitor, single point]"
12,c1ccc(-c2csc(NNC3=NCCCCC3)n2)cc1,"inconclusive [inhibitor, single point]"
13,O=C(Oc1cccc(/C=N/NC(=O)c2ccccn2)c1)c1ccc([N+](=O)[O-])cc1,"inconclusive [inhibitor, single point]"
14,O=C(Cc1ccc(-n2c(=S)[nH]c3ccccc3c2=O)cc1)N1CCN(c2ccccc2)CC1,"inconclusive [inhibitor, single point]"
15,CCOc1cccc(C(=O)Nc2nccs2)c1,"inconclusive [inhibitor, single point]"
16,COc1ccc(-c2n[nH]c(=S)n2-c2ccc(C)cc2)cc1,active: 10 µM
17,Cc1c(=O)n(OCc2cccc(F)c2)c2ccccc2[n+]1[O-],inactive
18,Cc1ccccc1-c1cc2nc(-c3ccc([N+](=O)[O-])cc3)cc(=O)n2[nH]1,inactive
19,NC(N)=Nc1nc(-c2ccccc2)c2ccccc2n1,"inconclusive [inhibitor, single point]"
20,Cc1ccc(C)c(N(C(=O)Cc2cccs2)C(C(=O)NC2CCCC2)c2ccc(C)o2)c1 (configuration not stated),inactive
21,CCN(CC)S(=O)(=O)c1ccc(C)c(NC(=O)Cn2cnc3cc([N+](=O)[O-])ccc3c2=O)c1,"inconclusive [activator, single point]"
22,CC(C)c1ccc(C(=O)Nc2ccc(CN3CCOCC3)cc2)cc1,"inconclusive [inhibitor, single point]"
23,COc1ccc(OC)c(-c2nc(CN3CCN(C(=O)c4ccco4)CC3)c(C)o2)c1,inactive
24,O=C(Nc1ccccc1)/C(=C\c1ccncc1)NC(=O)c1ccccc1,"inconclusive [inhibitor, single point]"

row,SMILES,Potency
1,O=S(=O)(NC(=S)NC1CCCCC1)c1ccc(Cl)cc1,active: 5.62 µM
2,C=CCNC(=S)Nc1sc2c(c1C(=O)OCC)CC(C)(CC)OC2 (configuration not stated),"inconclusive [inhibitor, full curve, poor fit]"
3,COc1ccc(NC(=S)NCCCCCC(=O)C[N+](=O)[O-])cc1,"inconclusive [activator, full curve]"
4,Cc1ccc(CNC(=O)C2(S(=O)(=O)c3ccccc3)CC=CC2)cc1,"inconclusive [inhibitor, full curve, poor fit]"
5,CC1=CC(=C(C#N)c2nc3ccccc3s2)C=C(C)N1c1ccc(F)cc1F,"inconclusive [inhibitor, partial curve]"
6,CC(=O)c1c(C)[nH]c(C(=O)Nc2ccc(S(=O)(=O)N(C)C)cc2)c1C,inactive
7,Cc1c(C#N)c2ncnc(-c3ccccc3)c2n1-c1ccccc1,"inconclusive [activator, single point]"
8,O=C1CC(N2CCCCC2)C(=O)N1c1ccccc1 (configuration not stated),active: 20 µM
9,O=C(Nc1ccc(-n2nncc2-c2ccco2)cc1)c1cc2ccccc2oc1=O,"inconclusive [inhibitor, single point]"
10,CC1=NN(c2nc(C)cc(C)n2)C(=O)C1CCC(C)C (configuration not stated),active: 7.94 µM
11,CC1(OC(=O)CCc2ccccc2)C(=O)C=C2C=C(c3ccc(C#N)cc3)N(Cc3ccccc3)C=C2C1=O (configuration not stated),inactive
12,O=C(O)COc1ccc(C(=O)Cc2ccc3c(c2)OCCCO3)c(O)c1,"inconclusive [inhibitor, single point]"
13,COc1ccc(CCNC(=S)NC(=O)/C=C/c2ccc(C)cc2)cc1OC,active: 10 µM
14,CCOc1ccccc1NC(=S)N1CCCCCC1,"inconclusive [inhibitor, single point]"
15,COc1cc(NC(=O)c2ccccc2)c(OC)cc1NC(=O)Cc1ccc(Br)cc1,active: 11.2 µM
16,CC(=O)N1c2ccc(S(=O)(=O)N3CCC(C(=O)N4CCN(c5ccccc5F)CC4)CC3)cc2CC1C (configuration not stated),inactive
17,COc1ccc(NC(=O)Cc2nnc(SCC(=O)NC3CCCC3)n2C)cc1,inactive
18,Cc1cccc(-c2noc(-c3ccc(F)cc3)n2)c1,"inconclusive [inhibitor, single point]"
19,COc1ccc(C(CCNCc2ccccc2F)c2ccc(F)cc2)cc1 (configuration not stated),"inconclusive [inhibitor, single point]"
20,O=C(Nc1nncs1)c1cccc(S(=O)(=O)N2CCCCC2)c1,"inconclusive [activator, partial curve]"
21,N=c1c2c(-c3ccccc3)c(-c3ccccc3)n(Cc3ccccc3)c2ncn1CCCO,"inconclusive [inhibitor, single point]"
22,CCn1c(C)nc2cc(C(=O)NNS(=O)(=O)c3ccc(C)cc3C)ccc21,"inconclusive [inhibitor, single point]"
23,N#Cc1ccccc1OCC(=O)Nc1ccc2c(c1)OCCCO2,"inconclusive [inhibitor, single point]"
24,Cn1/c(=N/NC(=O)c2ccccc2Br)sc2ccccc21,"inconclusive [activator, partial curve, poor fit]"

row,SMILES,Potency
1,CCOC(=O)C1(CC/C(C)=N\NC(N)=O)CC(C)OC1=O (configuration not stated),"inconclusive [inhibitor, single point]"
2,CCCc1cc(N2CCOCC2)n2nc(C)c(-c3ccccc3)c2n1,inactive
3,CCNC(=S)N/N=C(\C)c1cc2ccccc2o1,active: 7.94 µM
4,CCOC(=O)C(C)On1c(-c2cccc(Cl)c2)nc2ccc([N+](=O)[O-])cc21 (configuration not stated),inactive
5,Nc1nnnn1/N=C/c1cccc(OCc2ccccc2Cl)c1,"inconclusive [inhibitor, single point]"
6,CCN(CC)S(=O)(=O)c1cccc(NC(=O)CNc2cccc(S(=O)(=O)N3CCCC3)c2)c1,active: 0.708 µM
7,C=CCn1c(=S)[nH]c2scc(-c3cccs3)c2c1=O,active: 0.794 µM
8,Cn1nnnc1SCCNCc1ccccc1OCc1ccccc1Cl,"inconclusive [inhibitor, single point]"
9,O=C1CCCc2cc3c(cc21)CC1(C3)Cc2cc3c(cc2C1)C(=O)CCC3,"inconclusive [inhibitor, single point]"
10,CC(=O)c1ccc(Nc2cc(C)nc3ccccc23)cc1,inactive
11,Oc1cccc(-c2nc3c4c(ncn3n2)-c2ccccc2CC42CCCC2)c1,active: 25.1 µM
12,Cc1ccc2[nH]c(-c3ccccc3)c(CN(C)C)c(=O)c2c1,inactive
13,CCSc1nnc(NC(=O)CSc2nnc(CNC(=O)c3ccc(OC)c(OC)c3)o2)s1,"inconclusive [inhibitor, single point]"
14,COc1ccccc1Nc1nc(N)nc(CSC(=S)N2CCCCC2C)n1 (configuration not stated),active: 7.08 µM
15,N#Cc1cccc(NC(=O)CSc2sc3c(O)cc(=O)[nH]c3c2C#N)c1,inactive
16,Cc1cc(C)n(/N=C\c2c(O)ccc3ccccc23)c(=O)c1C(N)=O,inactive
17,COC(=O)Cc1ccc(NC(=S)NCCSc2ccc(Cl)cc2)cc1,"inconclusive [inhibitor, single point]"
18,Cc1ccc(C)c(NC(=S)N2CCCCCC2)c1,"inconclusive [inhibitor, single point]"
19,O=C1c2cccc(OCC(=O)N3CCCc4ccccc43)c2CCN1Cc1ccccc1,"inconclusive [inhibitor, partial curve]"
20,C=CCN(C(=O)CSc1nc2c(sc3ccccc32)c(=O)n1CCN(CC)CC)c1ccccc1,"inconclusive [inhibitor, single point]"
21,CCOC(=O)c1cc(-c2ccccc2)n(CCC(=O)N2CCN(c3ccccc3OC)CC2)c1C,"inconclusive [inhibitor, partial curve]"
22,CCN1CCC[C@H]1CNC(=O)c1cc(S(N)(=O)=O)ccc1OC,"inconclusive [inhibitor, single point]"
23,O=C(N/N=C/c1cccc([N+](=O)[O-])c1)c1cc(-c2ccc3c(c2)OCO3)n[nH]1,"inconclusive [inhibitor, single point]"
24,COCCCNC(=S)NCCNc1nc2c(C)c(C)ccc2cc1C#N,"inconclusive [inhibitor, single point]"
